This note sets out measurements from the RNAGym collection of RNA variant scans (doi:10.7554/elife.90254).

Read counts are not given, so values of variants with three or more changes are uncertain.

The chains are these.
B1: LINE1-full (parent)
chain: UACGUAGGUGGUUUUCCCCUGAUAGUGCUAAGGGGGCCUGGAAGUUUGGACUGGGCAGAGCUCAACACAGCGUGGCAAAGUGGCUGUGGCUAGACUGCCUCUCUGGAUUCCUCGUCACUCAGCAGGGCAUCUCUGAGAGAAAUGCC
B2: OR4K15 (parent)
chain: GUUAACGGUCAUAGGCCAUGGAAACUAGGAGCACCAUUUCGCUGCCAGUGAAGAAAUGAACAAAGAAAAUCUGGGCCAGGCAGGCAUCAAAAGAAAUAGUCUUGCGCUCAACCAGAAAGUCUGUAAUCAUUUUAAGGGUA

The first data set covers variants of B1. Nature of the data set: self-cleavage, relative activity (ratio to wild type); higher = more cleavage; in vitro, sequencing; the parent is a self-cleaving ribozyme.
Consider U108C U119C A121G, for which the self-cleavage came out at 0.
On the same count and under the same terms, for A107U A121G U130C the value was 1.64; for A121U A140G A142G, 1.62; for U112C A129U U130A, 1.62.
Consider U109G U134G A140G, for which the self-cleavage came out at 0.15.
Still for that read-out and setting: for U130C A136U A138G the value was 2.63; for A124U U132C U134C, 2.51.
With U119G U132C A141G, the self-cleavage turned out to be 1.99.
On to A107U U115C U143A, for which the self-cleavage came out at 2.43.
The same measure, in the same setting: for U132C U134A A142G the value was 0.78; for U112C A136G A140G A142G, 1.72.
Still for that read-out and setting: for A129U U134A A140U the value was 0.49.
Still for that read-out and setting: for U132C A141G U143A the value was 1.2; for U109A G114A U119A, 1.86; for A117G G126A U134C A140G, 1.87.
In the case of A107U U119C C120U, the self-cleavage was 1.6.
Same read-out and setting: for G125A U132C U143A the value was 1.17; for U130A G135A A140G, 1.61; for A107G U134C A140U, 2.59.
As for A107G U134C A140G, the self-cleavage was determined as 2.95.
Same read-out and setting: for U115A A117G A136G the value was 1.41; for U115C U130C A140G, 2.85; for U115G U132C A142G, 1.25.
Still for that read-out and setting: for U108C A142G U143A the value was 1.7; for A136G A141U A142G, 1.23.
Same read-out and setting: for C113U A117G A129G U134C the value was 1.34.
Turning to A121U U130A A142C, the self-cleavage is 2.13.
The same measure, in the same setting: for U109C A117U A136G the value was 2.28; for A121G A136U A138U, 0.99; for U109C U119A A129U, 1.59.
On the same count and under the same terms, for U108A A138U U143C the value was 1.55; for U112C A117G A138U, 1.41.
In the case of U108C U134C A136G, the self-cleavage was found to be 2.53.
On the same count and under the same terms, for U112A A129C U132C A140G the value was 1.15; for U108C U132C A136G, 1.53; for U112C A129G U134C, 0.59.
On the same count and under the same terms, for U134C A136G C146U the value was 1.7; for C123U A124G A141G, 1.36.
Same read-out and setting: for A117G U130C G137U A138U the value was 1.88; for U109A U112C C133U, 1.17.
Take U115C A129U U132C: the self-cleavage came out at 2.11.
Still for that read-out and setting: for A121U A141G U143C the value was 1.49; for A107G A138G A141G, 1.1; for A121G A124U A141G, 1.63.
Regarding U130C U134C A141G, the self-cleavage turned out to be 2.18.
For the variant U108C A121G U130A, the self-cleavage was found to be 1.48.
For the variant A121U G122A A138G, the self-cleavage amounted to 0.95.
A124U U132C C146A: the self-cleavage came out at 1.56.
On the same count and under the same terms, for U115C A124G A140U the value was 1.31; for U115A U132C A141G, 2.06; for A107G U109C A140G, 0.9.
Same read-out and setting: for A124G U132C A141G the value was 2.34; for A107G C123U U132C, 1.02; for A129U U130C U132C A142C, 0.
On the same count and under the same terms, for A121U A136G A142G the value was 1.72.
For A136G A138G A141G, the self-cleavage was found to be 2.04.
On the same count and under the same terms, for C113A A117U A124U the value was 1.33; for A117U A121G U132C, 2.04; for A129G A142G U143C, 1.86.
Still for that read-out and setting: for U115C A129G U143C the value was 0.71; for U119A A141G U143A, 0.73; for U112C A140G A141G, 1.12.
The same measure, in the same setting: for U115C U119C U132C the value was 1.15; for C111U U112C U115C A138G G139A, 1.62; for U132C A140G G144A, 1.49.
Regarding A117G G127U A142G, the self-cleavage was determined as 1.25.
Same read-out and setting: for U132C U134C A140G the value was 2.05.
U108C A124G A136G: the self-cleavage was found to be 0.
Regarding A121U U132C U134C, the self-cleavage stood at 1.81.
On the same count and under the same terms, for G126A U132A A142G the value was 1.84; for U109C U115C U134A, 0.52.
Still for that read-out and setting: for A107U A121U A142G the value was 0.91; for U112C U130C U143C, 2.53.
Still for that read-out and setting: for U130C A138G C146U the value was 2.04; for U130C U134C G144A, 1.73.
For A121U A124C U134C, the self-cleavage was 1.68.
A129G U134A C146A: the self-cleavage came out at 1.02.
Turning to U115A A117G A121G, the self-cleavage was 1.84.
Take C131A A140G A141G: the self-cleavage was determined as 1.25.
On the same count and under the same terms, for A107G U108A U119C U132C the value was 1.14; for U119C A124U U143C, 1.81.
Turning to A107U U115C A124U, the self-cleavage is 1.78.
Take A117U A129G A136G: the self-cleavage amounted to 1.8.
Still for that read-out and setting: for G114A U115C U119C C128U U132C the value was 1.84.
In the case of A138G A141G A142G, the self-cleavage is 1.41.
Same read-out and setting: for A138G A141G A142U the value was 0.89; for U108C A141C A142G, 2.21; for A107U A117G A124U, 1.8.
With U108A A136U A140G, the self-cleavage turned out to be 1.37.
On the same count and under the same terms, for U115G A117U A121G the value was 0.
Take U112A U115C G126U: the self-cleavage worked out at 1.3.
The same measure, in the same setting: for C116U U134A A138G the value was 1.39; for A107U U119C A124G, 0.68; for G114U U115C A142G, 1.61.
Same read-out and setting: for U132C A136U A141G the value was 1.89.
In the case of U109C U134C A142G, the self-cleavage turned out to be 1.74.
Still for that read-out and setting: for A140G A142G U143A the value was 1.15.
Still for that read-out and setting: for A117G A138G A142G the value was 0.89; for C113U U119C A142G, 1.5.
With U119C U134A A140G, the self-cleavage came out at 0.62.
For the variant A121G A124U A140G, the self-cleavage worked out at 2.38.
Same read-out and setting: for A121G A138G G144A the value was 1.67; for U119A A121U U143A, 1.26.
Same read-out and setting: for A117G U119C U143C the value was 1.6; for U112C G127U U130A, 0.65.
Take A117G U119A U143A: the self-cleavage is 1.3.
The same measure, in the same setting: for U115A A138G U143A the value was 2.06; for U108C A129G C133U A136U, 2.51.
On the same count and under the same terms, for A117G A138U A142U the value was 2.14; for U132C G135A A138G, 1.91; for U112C G127U C128U A136U, 1.35.
On the same count and under the same terms, for U112C C113U U130C the value was 1.15; for A124G G127U A142G, 0; for A124G A136G A141G, 1.67.
As for U109A U115C A142G, the self-cleavage turned out to be 1.56.
Still for that read-out and setting: for A121G G125A U132C the value was 0.74; for C113A G127U U132C U143C, 1.59; for U112C C116U C145U, 0.94.
Regarding A107G U108C U134C, the self-cleavage stood at 1.84.
The same measure, in the same setting: for A117G U130A A140G the value was 0.43.
On the same count and under the same terms, for U112C G122U A129G the value was 1.3; for A121U A138G A140U, 1.47; for U108C U130C A138G, 1.53.
Same read-out and setting: for A129G A138G C145U the value was 2.22.

The next data set covers variants of B2. Described as above.
Consider U2C A24G A30G A52G G73A, for which the self-cleavage amounted to 0.18.
On the same count and under the same terms, for U2C A33U U100C A111U U132C the value was 0.21.
Same read-out and setting: for G1A A18G A60G the value was 1.47.
Consider U2A G41C A67G, for which the self-cleavage is 0.56.
On to U2C A47G C101U, for which the self-cleavage stood at 0.29.
On the same count and under the same terms, for U2A C42U A95G the value was 0.53; for U2C A24G A36U A62U, 1.79; for U2A A36G U39A A90G U124C, 0.25.
For U2C A22U G106C, the self-cleavage was found to be 0.03.
Take G1A A60G A62G U100C: the self-cleavage turned out to be 2.14.
With U2C A11U A18C A33G A62C A95G, the self-cleavage was determined as 0.96.
Still for that read-out and setting: for U2C A33G A54G A92G A96G A125G the value was 0.1; for U2A A22G U38A, 0.52.
On to U2C A11G A54U, for which the self-cleavage worked out at 0.81.
U2C A4G U39A: the self-cleavage worked out at 1.36.
The same measure, in the same setting: for U2A A24G A64G A86C C107G the value was 0.04; for G1U A47U A64G, 1.2; for G1A A117G U120A A135U, 2.64.
For U2A U19A U49G, the self-cleavage amounted to 0.57.
On the same count and under the same terms, for U2A A24G A95G U97A the value was 1.26.
On the same count and under the same terms, for U2A A23G A54G U124C the value was 0.53; for U2A A47G A92G, 1.19.
Still for that read-out and setting: for U2C A51G U103C the value was 0.84; for U2C A18U C32U A86G A96C U133C, 0.97; for G1A A62U A125G U127C, 0.58.
As to U2C A11G A68G A116G U132C A140G, the self-cleavage was found to be 0.86.
The same measure, in the same setting: for U2C A11G A52G the value was 1.71; for U2A A129G U130G, 0.3.
Still for that read-out and setting: for U2A A51U A89U the value was 0.93; for U2A A64U A126G A129G A134U, 0.65.
The same measure, in the same setting: for U2C A11U A51U U87C U122A the value was 0.82; for U2A A5U U108C, 0.05.
For U2C A13G A82U A98G U130C U139C, the self-cleavage was 0.03.
The same measure, in the same setting: for U2A U72C A118U C121U the value was 0.14; for U2A A56G U102C A118G, 0.6; for U2A A59U A78U, 0.61.
Same read-out and setting: for U2C A23G A51G C105A the value was 0.04; for U2C A22G U39C A94G C105U A135U, 0.09; for G1A G53A U100C, 2.09.
Same read-out and setting: for U2C A23U A59G the value was 0.42; for G1U U39C A94G A98G, 0.29; for U2A A52G A64G A69G C77U, 1.27.
In the case of U2C A13G A62U U87C, the self-cleavage was found to be 0.63.
